± gives the standard deviation of the averaged measurements. This is one part of the list.
tested on: PfAP2-LT AP2 domain (GST-tagged); assay: gcPBM binding intensity (ln(normalized median fluorescence intensity)); higher = stronger DNA binding
Procedure, shortened: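 The highest Masliner-normalised natural-log median intensity across replicate spots of either probe orientation is reported as binding intensity. GST-tagged P. falciparum DNA-binding domains expressed in E. coli were applied for 1 h to an Agilent 4 × 180k array of primer-extended double-stranded 36-bp intergenic genomic probes plus negative controls, and bound protein was detected with Alexa488 anti-GST antibody and scanned at 488 nm.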

| Sequence | gcPBM binding intensity (ln) |
| --- | --- |
| ACATAACTTATATATACACACAATACAAATATATAT [CACACA_site2774] | 9.18 ± 0.38 |
| CTTTTTTTTTTGGGGGTGCATGCAAGACATATATTT [GTGCAC_site9660] | 9.29 ± 0.16 |
| TTTAATTTTTATATAACACACATATTGTAATTATGT [CACACA_site4566] | 9.04 ± 0.47 |
| ATGTTTAATTAAATATGTACTTATTATATTATATGT [XGTACX_site8137] | 8.78 ± 0.5 |
| AGGAATCTACATATATGTACATATATTGATATATTT [XGTACX_site137] | 9.04 ± 0.38 |
| TATATATGTAGACGTTGTACTTTTTTGTAAGTTTAA [XGTACX_site5638] | 8.65 ± 0.34 |
| TGTGTCAAGTTTAATAAACGCATATAATATATATGA [CACACA_negctrl_site607] | 8.59 ± 0.41 |
| TTTAAATTTTTATATTGTACTTTATTTATTTATTTA [XGTACX_site869] | 8.66 ± 0.58 |
| AAAATAAAATCATAAAGTACAAAAAGAAAATAAAAA [XGTACX_site7376] | 8.8 ± 0.42 |
| CATGACATATCCTGTAGTACAACGTATATATAAGAT [XGTACX_site2577] | 9.1 ± 0.46 |
| AATTTTCAATAGTATACACACAATTATATATATATA [CACACA_site1116] | 8.87 ± 0.37 |
| TCTTTTCTCGGAAGGGTGCAAGGAATTAATGAAATA [GTGCAC_site9706] | 8.38 ± 0.42 |
| TCAATAAATATACATACATGCATACATACATACATA [TGCATGCA_site197] | 8.93 ± 0.27 |
| TGTGTTAATATGAATTTAAACATAAATAAATAAATA [CACACA_negctrl_site1589] | 8.41 ± 0.4 |
| GAACATTTATTGTGTGTGCACAATTCTTTTTTAACC [GTGCAC_site9697] | 9.2 ± 0.41 |
| TTTTTTTGCGCGGGAAGAATAAAATTTATAGAATAT [TGCATGCA_negctrl_site306] | 8.4 ± 0.49 |
| CAGACATTAATAAGTAGTACACAATAATTGACTAGG [XGTACX_site854] | 8.99 ± 0.45 |
| TATCATGTGCGTGCGTGTACTTAACACACATAATAT [XGTACX_site2404] | 9.2 ± 0.25 |
| TATTTTTATAAAAACTGTACATAATAAATAAAAATA [XGTACX_site4743] | 8.49 ± 0.35 |
| AATCAAAGTAATTTAACACACAATTTTAATACTGTT [CACACA_site7169] | 8.84 ± 0.43 |
| TTATATGTTTCTTCACGTACGTATAAAAATGAACTT [XGTACX_site1764] | 8.64 ± 0.37 |
| TTGTTCATTATGCACAGTACATAAAAAGTAAAAAAA [XGTACX_site2403] | 8.66 ± 0.59 |
| TCATTTATTTTAAGGTGTACCGTTTAAAATCACAAA [XGTACX_site3243] | 8.32 ± 0.43 |

| Sequence | gcPBM binding intensity (ln) |
| --- | --- |
| ATATTGACAAATATTACACACATATATATATATATA [CACACA_site4079] | 9.6 ± 0.071 |
| AATGTTTAATATAACGCATGCCTTAATATAGAATGC [TGCATGCA_site463] | 8.76 ± 0.36 |
| TTTCTAATTTATATCACACACATATATAAATAGTAA [CACACA_site6156] | 8.72 ± 0.42 |
| ATATATATAATTTAAAGTACATATTTAAGAATGAAA [XGTACX_site2238] | 8.54 ± 0.4 |
| AGTTTTATGTAGTGTTGTACTTTATACAAATATATA [XGTACX_site990] | 8.72 ± 0.35 |
| AGTAATAATATAATTTGTACATATATATATTATAAA [XGTACX_site7138] | 8.64 ± 0.4 |
| TACAAAAATGTAGTCACACATATGTATACTTTTATG [CACACA_site5607] | 8.85 ± 0.42 |
| GTTTAACTGTTTTATACACACAATGTAGACAATAAA [CACACA_site8967] | 8.8 ± 0.37 |
| GTACAAAAAAAGTGTACACAAAGTAAGACTTTAATT [CACACA_site5068] | 9.08 ± 0.44 |
| CACTGTAAATAGAAAGTGCAAAAATTGTAAATAAAA [GTGCAC_site9980] | 8.82 ± 0.6 |
| TAAATACATTGACACACACACAAATATGTACATACA [CACACA_site7371] | 9.77 ± 0.3 |
| ACTTGATTACACAACCACAAGTAATTGAAATTATTT [XGTACX_negctrl_site297] | 8.68 ± 0.49 |
| TGAAAAGATAAAAAATGTACATATATATTATATATA [XGTACX_site5678] | 8.72 ± 0.48 |
| TTTCTAAATAATATACACAAAAAAATAAAACACTAA [TGCATGCA_negctrl_site43] | 8.56 ± 0.47 |
| ATACACAATTATTTTCCTATTATGCAAGCAAATTTA [CACACA_negctrl_site1176] | 8.52 ± 0.37 |
| CATATTTGTATATGCACACATAAATTTTTCCATTTC [CACACA_site3467] | 8.94 ± 0.41 |
| AAATTTTTAAACAGCACACATAAATATAATATATAT [CACACA_site2208] | 8.82 ± 0.44 |
| AAACAAAAAAACTACAGTACTTTTTTCAATTCCCCT [XGTACX_site7541] | 8.68 ± 0.42 |
| AAAATTAACCGTAACACACACACATATATATATATA [CACACA_site3964] | 9.96 ± 0.28 |
| TATATGTTTACTTAATGTACTTACATTTTTATAACA [XGTACX_site1100] | 8.77 ± 0.46 |
| ACATAAATAATAAAAACACACATATGTACTTATATA [CACACA_site8581] | 8.97 ± 0.42 |
| TTATTAATTTTTATTTTTAAATCACAAAAGATATAA [CACACA_negctrl_site787] | 7.92 ± 0.48 |
